# Experimental data as given in paper PMC7819943, “Rice protein-binding microarrays: a tool to detect cis-acting elements near promoter regions in rice”.
# This is one part of the list.
# Biological target: T1, OsWOX13 (Oryza sativa, UniProt Q5QMM3 1-267)
# T1 sequence: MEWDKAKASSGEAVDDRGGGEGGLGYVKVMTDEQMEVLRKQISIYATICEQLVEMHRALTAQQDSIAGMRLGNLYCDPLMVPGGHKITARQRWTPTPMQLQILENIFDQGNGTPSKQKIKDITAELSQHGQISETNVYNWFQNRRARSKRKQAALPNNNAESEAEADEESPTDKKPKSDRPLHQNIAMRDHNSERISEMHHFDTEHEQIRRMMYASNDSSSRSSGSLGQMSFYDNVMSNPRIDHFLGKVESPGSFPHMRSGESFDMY
# Test: protein-binding microarray (RPBM); PBS, 2% BSA, 51.3 ng/ul salmon testes DNA, 50 uM zinc acetate, 200 nM TF, 25 C, 1 h; high values mean tight binding
# Conditions: protein: recombinant; tags: N-terminal polyhistidine and DsRed monomer fusion (pET32a); label: CyDye5-dUTP incorporated in the synthesized complementary strand; 3' TTTTT single-stranded linker to array surface; dsDNA, one strand shown
# Method in brief: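 Ni–NTA purification followed expression in E. coli BL21-CodonPlus of transcription factors fused N-terminally to a polyhistidine tag and DsRed. At 200 nM in PBS with 2% BSA, salmon testes DNA and 50 µM zinc acetate, the protein was incubated for 1 h at 25 °C with a custom Agilent array that had been primer-extended with Cy5-dUTP and blocked with 2% BSA. After washing, the array was read on an Axon 4000B scanner. The binding signal is per-feature fluorescence intensity in arbitrary units.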
row,Sequence,binding signal
1,TTTAATTGATGGAGCGGTAATGGTAATAGTTCTTCACTCACGGAGTCACCTAGTGCAG,57300 fluorescence intensity (a.u.)
2,ACGTGTCACTGATTATAATACGTACTCCCCGTTTCATAATCGGAGTCACCTAGTGCAG,7670 fluorescence intensity (a.u.)
3,TACAAAATTTAAAATCATGTTATGATTTTAATATATTTGACGGAGTCACCTAGTGCAG,16800 fluorescence intensity (a.u.)
4,AGAGCACTTAATTGTCGGATTTACTCCCACGTTGATAATCCGGAGTCACCTAGTGCAG,8130 fluorescence intensity (a.u.)
5,ATGATTGGGCGAGGCCTATAAAGCCCCTGCGCCCATCTCTCGGAGTCACCTAGTGCAG,21800 fluorescence intensity (a.u.)
6,ATCTGATATGTTTCTGATTTCTGAACCGTCCGGCTCGCGGCGGAGTCACCTAGTGCAG,11700 fluorescence intensity (a.u.)
7,TTGAATGGCAGAAAACACTTGATTAGGTTCTGTTTGGCACCGGAGTCACCTAGTGCAG,9030 fluorescence intensity (a.u.)
8,ATTGTTCAAAACGTCAATTAATATATAGAACCAATATAGACGGAGTCACCTAGTGCAG,5470 fluorescence intensity (a.u.)
9,GTTAAATTGCCACGTAAGCACCACGTCATACCACGTCAGACGGAGTCACCTAGTGCAG,16300 fluorescence intensity (a.u.)
10,ATTCAATTAGCAGAACTGCAGATTTAGGAGTCTGTAATTGCGGAGTCACCTAGTGCAG,32700 fluorescence intensity (a.u.)
11,ATATCATTTTATTGTTGATTTCATGTTAACAAGCTAACCCCGGAGTCACCTAGTGCAG,4830 fluorescence intensity (a.u.)
12,GTTTCATGATTCCTGGCTTGATTGAGTGAAGCATATTCTCCGGAGTCACCTAGTGCAG,18800 fluorescence intensity (a.u.)
13,CATTCATATAGATATAAATGAATTTAGACATATGTGTGTGCGGAGTCACCTAGTGCAG,3680 fluorescence intensity (a.u.)
14,TGATATTGATTCCAATTCCATTCAGGGAAAGAGCCAGAGTCGGAGTCACCTAGTGCAG,6750 fluorescence intensity (a.u.)
15,AGAAAATAATTTGTTAATTGGTCGATACAAAAGTGCCTTTCGGAGTCACCTAGTGCAG,30300 fluorescence intensity (a.u.)
16,CTTCTAATTTCCTAAACTCACAAGTCACAAGTCAACAACTCGGAGTCACCTAGTGCAG,3150 fluorescence intensity (a.u.)
17,CCAAAGATTCTAAATGATTGGGTTGTATGGTGTGCCTTTTCGGAGTCACCTAGTGCAG,12800 fluorescence intensity (a.u.)
18,GTTAACTTGTCTTGACAGTTGACACGTAGATTTGCGGGCGCGGAGTCACCTAGTGCAG,5640 fluorescence intensity (a.u.)
19,TTCGATATTGACAATCTCTTCAGCGAAGTAGGCAGACCACCGGAGTCACCTAGTGCAG,4990 fluorescence intensity (a.u.)
20,TAAAATTCAATTTATCATATGTTATTACTATCTCGTTTTACGGAGTCACCTAGTGCAG,3490 fluorescence intensity (a.u.)
21,ATGGATATAAATTGATGAGTACAGTCCTGAGAACTGCAAGCGGAGTCACCTAGTGCAG,32600 fluorescence intensity (a.u.)

row,Sequence,binding signal
1,AAATAATTTACAGGTAAAACTTTTATAACGATAGTTAATGCGGAGTCACCTAGTGCAG,29100 fluorescence intensity (a.u.)
2,CTTTTAGTAACTGCTGTTAATTTAAATACTTGAAAATCCTCGGAGTCACCTAGTGCAG,10500 fluorescence intensity (a.u.)
3,AACAACACCACATCATTAATTACTGCAGTAGACTGTGAGCCGGAGTCACCTAGTGCAG,4280 fluorescence intensity (a.u.)
4,ACCGTGATTACGGTAATTGGAAATATAAAAGAGATGGGAGCGGAGTCACCTAGTGCAG,56800 fluorescence intensity (a.u.)
5,TTAGCAACTGATTAGTAGCAACTGTATTGGTCTCGAGTACCGGAGTCACCTAGTGCAG,11600 fluorescence intensity (a.u.)
6,CCGGGATTTTAATTTCTTGGCACCTCGCCTCAGCATATTCCGGAGTCACCTAGTGCAG,4600 fluorescence intensity (a.u.)
7,AAGCACTGCAATGACTAAACATTGATTAGTTACCTATGCACGGAGTCACCTAGTGCAG,7540 fluorescence intensity (a.u.)
8,TAAAATTCAAATTTTATATAGTTCAATTAAACTCGGATGGCGGAGTCACCTAGTGCAG,6050 fluorescence intensity (a.u.)
9,ATCTGACCGTTAATTGTCATGGGCATTTTAGTCTTTATGTCGGAGTCACCTAGTGCAG,3820 fluorescence intensity (a.u.)
10,TGGTCTTGTATAATTTAGGGGTGAAGATTTATGGTATTAACGGAGTCACCTAGTGCAG,4280 fluorescence intensity (a.u.)
11,AATAGTTGGCAATAATTGAAAGGATGAAATCCTAATAGTTCGGAGTCACCTAGTGCAG,10900 fluorescence intensity (a.u.)
12,CGCCCCAAATTTGCTAGTGTATGGTCATGAGGATGTATAACGGAGTCACCTAGTGCAG,3310 fluorescence intensity (a.u.)
13,TTGTCGATTGACTTGTGGGGTCTACGTGGGACTCAACCGCCGGAGTCACCTAGTGCAG,8140 fluorescence intensity (a.u.)
14,GGCCCATATAATTAGGAATGGACTAGATGGGTATTGAGTACGGAGTCACCTAGTGCAG,5070 fluorescence intensity (a.u.)
15,TGCCTGACTGAATATGTGTGGTCAATCTGAAGACTGCTAACGGAGTCACCTAGTGCAG,4370 fluorescence intensity (a.u.)
16,AAATAATTATATAGATTATGTGTAAATTACGAGACAAATCCGGAGTCACCTAGTGCAG,19600 fluorescence intensity (a.u.)
17,TATGATTTATTGAATTCTACAAACCGAAATGCAAACATATCGGAGTCACCTAGTGCAG,24000 fluorescence intensity (a.u.)
18,GTACTAATTAATTACCATCCTAATTTAGACCATCTTTATACGGAGTCACCTAGTGCAG,35500 fluorescence intensity (a.u.)
19,ATCAGAGCTAAATTGAATTAATGAGGGTAAATTGGTCATTCGGAGTCACCTAGTGCAG,15700 fluorescence intensity (a.u.)
20,AACAAATTAAATAATCCACGAGTTCATTATCATCATGTAACGGAGTCACCTAGTGCAG,8320 fluorescence intensity (a.u.)
21,CTTCTAATTATTTGATATTAGGTCCTTCCTAATATTCGTACGGAGTCACCTAGTGCAG,18200 fluorescence intensity (a.u.)
